Measurements from ChEMBL document CHEMBL4888484, “Replenishing the malaria drug discovery pipeline: Screening and hit evaluation of the MMV Hit Generation Library 1 (HGL1) against asexual blood stage Plasmodium falciparum ,using a nano luciferase reporter read-out” (2022).
The campaign covered roughly 150,000 compounds. About 540 (0.36%) showed an effect of 50% or more. The list shows a part of the results.

The compounds below were run on Plasmodium falciparum (assay: Primary screen in NF54 nanoGlo assay, in single point, at 2uM, 72h; a lower Z score goes with more inhibition). Conditions: timepoint 72 hour.
Format: functional, Erythrocyte

Compound | % Inhibition | Z score
COc1ccc(OCc2nc(C3CN(C(=O)c4sccc4C)C3)no2)cc1 | 9% | -1.47
CC(C)(C)c1nc(Cn2ccc3ncncc3c2=O)no1 | 22% | -2.83
CCn1c(CC2CCNCC2)nn(Cc2ccc(-n3cccn3)cc2)c1=O | -11% | 0.96
NC(=O)c1cc2c(cc1/C=C/c1ccccc1)OCO2 | -17% | 2.33
Cc1cc(=O)n(CC(=O)N(CCc2ccccc2)CC2CCN(C)CC2)nc1C | -7% | 1.28
O=C(Nc1c(F)cccc1F)c1cn(-c2ccc(F)cc2F)c(=O)c2ccccc12 | 31% | -3.66
CC(C)Cc1noc(CN(C)c2nc(-c3ccccn3)nc3c2CCNC3)n1 | 1% | -0.24
O=C(CC[C@@H]1NC(=O)NC1=O)NCc1ccsc1 | 2% | -0.4
CCCN(CCC)c1ncc(C(=O)Nc2ccc(OCC)cc2)c(N)n1 | 29% | -3.27
COc1ccc(-c2c(-c3ccc(OC)c(OC)c3)[nH]c3[nH]c(=O)[nH]c(=O)c23)cc1 | -4% | 0.4
COc1ccc(NC(=O)c2sc(-c3cn(C(C)C)c4ncccc34)nc2C)c(OC)c1 | -1% | 0.13
Cc1ccc(Nc2cc(=O)[nH]c(N)n2)cc1 | 2% | -0.26
COCCS(=O)(=O)N[C@@H](C)c1cc(OC)ccc1OC | 18% | -2.42
CC(C)c1csc(-c2csc(S(=O)(=O)Nc3ccc(F)c(F)c3)c2)n1 | -13% | 1.86
C[C@@H](C(=O)N1CCCC1)N(C)CC1(CO)CCC1 | -10% | 1.29
CC(=O)/C(=N\Nc1ccccc1)N1CCOCC1 | -8% | 0.88
C[C@H](NS(C)(=O)=O)c1nc(C(C)(C)C2CCC2)no1 | -10% | 1.8
O=C(CCc1cncc(F)c1)NCc1cccc(CO)n1 | -2% | 0.32
Cc1nnc(N2CCN(C(=O)c3sc4cccc(F)c4c3C)CC2)c(C#N)c1C | -12% | 1.82
Cc1cc(C)n2ncc(CN3CCCC[C@H]3c3cc(C)on3)c2n1 | 11% | -1.58
Cc1cnc(C)c(-c2ccc(C(=O)NCCC(=O)N3CCC(C)CC3)cc2)n1 | -8% | 1.61
Cc1ccc(C)c(N2CCN(C(=O)c3nnc(-c4oc5ccc(C)cc5c4C)o3)CC2)c1 | 17% | -2

Compound | % Inhibition | Z score
Cc1ccc(OC[C@H]2c3ccsc3CCN2C(=O)CN(C(=O)c2ccccc2)C(C)(C)C)c(C)c1 | -8% | 0.81
Cc1c(C2=CCN(S(=O)(=O)c3ccc(CC(C)C)cc3)CC2)c2ccccc2n1CC(=O)N1CCCC1 | -15% | 2.36
O=C(CCn1cnnn1)Nc1nc(-c2cccs2)n[nH]1 | -1% | 0.1
CCc1cnc(C(C)NC(C)c2ccc(C)o2)s1 (stereo not given) | 1% | -0.09
Cc1ccc(Cl)cc1N1CCN(C(=O)c2ccc(-n3ccc4ccccc43)s2)CC1 | -16% | 2.05
c1ccc(Nc2c(-c3ccccc3)nc3[nH]cnn23)cc1 | 2% | -0.22
CC(C)(C)OC(=O)NC1(CO)CCC1 | 12% | -1.42
Cc1ccc2c(C(=O)NC3CC(NS(C)(=O)=O)C3)c(C)ccc2c1 (stereo not given) | -11% | 1.77
COc1ccc(OCCS(=O)(=O)Nc2ccc3sc(C)nc3c2)cc1 | -15% | 2.05
C[C@H]1CCN(C(=O)N2CCc3ccsc3C2)C1 | -1% | 0.2
Cc1nnnn1CCC(=O)NC1(c2cc(F)cc(F)c2)CC1 | 15% | -2.01
CNS(=O)(=O)[C@H]1CCN(c2cc(C)c(Br)cn2)C1 | -5% | 0.46
CCCCCn1cc(C2CCN(C(=O)CC(C)(C)C)CC2)c2ccccc21 | -10% | 1.22
Cc1cc(C(=O)N[C@H]2CCCN(CCCc3ccccc3)C2)c(C)o1 | -9% | 1.26
CC[C@H](NCc1ccc(-c2cc[nH]n2)o1)c1nc(C)c(C)s1 | -24% | 2.16
COC(=O)C(C(=O)OC)C(C(=O)OC)(C(=O)OC)N1CCOCC1 | 2% | -0.25
CC(C)(C(=O)NC1CCCC1)C(F)F | -10% | 1.94
CNC(=O)c1nnsc1N1CCN(c2ccccn2)CC1 | -43% | 5.06
Cc1nc(C2CC2)ccc1C(=O)N[C@H]1CCCn2c(C)nnc21 | 4% | -0.45
CCNc1ccc(C#N)cc1NCc1noc(C)n1 | -2% | 0.17
CCC[N+]1(CC#CC2(O)CCCCC2)CCOCC1 | -9% | 1.67
CN1CC2(C)CN(C(=O)c3cccc(C#CC(C)(C)O)c3)CC(C)(C1)C2 | -8% | 0.88

Compound | % Inhibition | Z score
COc1ccc(-c2nc3ccc(C(=O)NCCc4ccc(OC)c(OC)c4)cc3nc2-c2ccc(OC)cc2)cc1 | 19% | -2.56
Cc1cc(=O)cc(C(=O)N[C@@H](C)CCCC(C)(C)O)[nH]1 | -14% | 1.83
Cn1ccc(CCC(=O)N[C@H]2CCCC[C@H]2CC(F)(F)F)n1 | -6% | 0.74
Cc1nc([C@@H]2CCCN2Cc2cn(C(C)C)nc2C)cs1 | -5% | 0.73
Cc1cccc(CC2CN(C(=O)c3cc(C(C)C)nn3C)C2)c1 | -10% | 1.44
O=C1N(Cc2c(Cl)cccc2Cl)c2ccccc2[C@@]1(O)Cc1ccncc1 | -30% | 2.61
C[C@H]1Cc2ccccc2N1C(=O)CS(=O)(=O)c1cccnc1 | 6% | -0.79
CC1CCCN(CC(C)NC(=O)c2n[nH]c3ccccc23)C1 (stereo not given) | -5% | 0.62
Cc1ccc(N[C@@H](C(N)=O)c2c(C)[nH]c(=O)[nH]c2=O)cc1 | -18% | 2.36
CN1C(=O)COC(C(=O)N2CCOC(c3cccc(O)c3)C2)C1c1ccccc1 (stereo not given) | -10% | 1.75
O=C(NC1CCCC1CCO)c1cccc(C2CCOC2)c1 (stereo not given) | 17% | -2.32
CN(Cc1ccccn1)c1ncc(Cl)cc1F | -19% | 2.17
CC1(C)Oc2ccc(NC(=O)COc3ccccc3)cc2NC1=O | 31% | -1.13
COc1cc(C2N3CCc4ccccc4C3CN2S(=O)(=O)c2ccccc2)ccc1OS(=O)(=O)c1ccccc1 (stereo not given) | 35% | -3.95
CCC(CC)(CC)NCc1cc(Cl)ccc1OCC#N | -10% | 0.93
O=C(CN1C(=O)c2ccccc2C1=O)NC1CCN(Cc2ccccc2)CC1 | 4% | -0.5
CC(C)C(=O)N1CCCN(S(=O)(=O)N(C)C[C@H](C)C#N)CC1 | -9% | 1.35
CC1CN(CC(=O)Nc2nc(-c3ccc(Cl)cc3)cs2)CC(C)O1 (stereo not given) | -20% | 2.73
Cc1nc(-c2ccccc2)c(N)c(N2CCCC2)n1 | -18% | 2.25
Cc1cc(C)c(C(=O)NCCc2ncc[nH]2)cc1C | -2% | 0.31
Cc1nc([C@H](O)c2ccccc2)n(-c2cccc(Cl)c2F)n1 | -8% | 1.33
Cc1n[nH]c(C)c1CC(=O)N(C)CC(=O)Nc1cc(F)cc(F)c1 | -3% | 0.28

Compound | % Inhibition | Z score
O=C(c1cccc(-n2cncn2)c1)N(CC1CC1)C1CCCCC1 | -2% | 0.23
COc1ccc(-n2nnc3c(=O)n(CC(=O)N4CC(C)OC(C)C4)cnc32)cc1OC (stereo not given) | -3% | 0.65
O=C1CC2(CCN(C(=O)c3ncoc3C3CC3)CC2)CN1Cc1ccccc1 | -6% | 0.63
Cn1cc([C@@H]2CCCN2Cc2nc3ccccc3n2C)cn1 | 2% | -0.28
O[C@@H](c1ccco1)c1nccn1Cc1cc(Cl)ccc1F | 2% | -0.31
O=C1C[C@]2(NC(=O)Nc3ccc4c(c3)OCCNC4)CCCC[C@@H]2N1 | 14% | -1.83
NC(=O)Cn1ccnc1C1CCN(C(=O)c2n[nH]c3ccccc23)CC1 | -5% | 0.59
O=C1CN(C(=O)Nc2nc(-c3ccccc3Cl)ns2)CCN1 | 6% | -0.89
CN(Cc1ccccn1)C[C@]1(O)CCc2ccccc21 | -8% | 1.48
CC(=O)Nc1ccc(Cc2nc(-c3ccc(N4CCOCC4)cc3)no2)cc1 | -16% | 2.13
O=C(Nc1ccc(S(=O)(=O)N2CCCC2)cc1)c1ccc2ccccc2n1 | -17% | 1.75
CC(C)c1nc(N2CCN(C3CCN(C(C)C)CC3)[C@@H](CCO)C2)no1 | -7% | 0.6
COc1cc(NC(=O)c2cnc(N(C)C)nc2)cc(OC)c1 | 4% | -0.68
CCOC(=O)[C@H]1CCCN(C(=O)CCN(CC)C(=O)c2cc3n(n2)CCCN(Cc2ccc(F)cc2)C3=O)C1 | 5% | -0.71
O=C(Nc1cc(C(F)(F)F)ccc1Cl)[C@@H]1COCC(=O)N1Cc1cccs1 | -10% | 1.74
CC(C)(CNC(=O)c1cccs1)C(F)(F)F | -34% | 4
CCCCn1ncc(C)c1NC(=O)CCC(=O)N(C)C | 2% | -0.41
NC(CC1CCCCC1)C(=O)NC1CC1c1ccccc1 (stereo not given) | -2% | 0.24
O=C(Nc1ccccc1)N1CCCN(C(=O)Nc2ccccc2)CC1 | 7% | -1.38
